Results published in the supplement of paper PMC3334620.
In all, about 33,000 sequences were measured (“E-score (-0.5 to 0.5)”: median about -0.054, highest 2% from about 0.39 on). This is one part of the list.

Each sequence was assayed against Ylr278c (UniProt Q05854) (assay: PBM E-score (8-mer binding enrichment) (E-score (-0.5 to 0.5)); higher = stronger / more preferred TF binding; most listed sequences are background and not binding sites). Details: protein concentration: 200 nM; construct: GST-DNA-binding domain.
Method in brief: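 PURExpress in vitro transcription/translation supplied GST-tagged yeast transcription factors, either full-length or DNA-binding domain. Applied at about 100-200 nM to universal all-10-mer Agilent arrays double-stranded by primer extension, the bound protein was detected with fluorescent anti-GST. E-scores, modified Wilcoxon-Mann-Whitney statistics, were given by the Universal PBM Analysis Suite to ungapped eight-base words pooled with their reverse complements after masliner normalisation.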
For ATTGCGCC, the “PBM E-score” value was 0.0625. In the case of AGAACACA, the “PBM E-score” value is reported as -0.0824. For AGGTTAGC, the “PBM E-score” value was -0.165. For CTATGTGA, the “PBM E-score” value was -0.127. CGAACATA was tested, and the “PBM E-score” value was 0.00022. In the case of CAGTCAAG, the “PBM E-score” value is reported as -0.309. In the case of GGATCCCA, the “PBM E-score” value is reported as 0.106. For GCACCTAC, the “PBM E-score” value was -0.0908. TAGACCAA was tested, and the “PBM E-score” value was -0.167. In the case of AGAAATGA, the “PBM E-score” value is reported as -0.167. For TACCAGAA, the “PBM E-score” value was -0.0232. ATGACCCC was tested, and the “PBM E-score” value was 0.0304. CGTTCGAC was tested, and the “PBM E-score” value was -0.121. For ACCGACTC, the “PBM E-score” value was 0.107. CTATTACC was tested, and the “PBM E-score” value was -0.0398. With ACGGGTAC the “PBM E-score” value was -0.231. GGGCTGAC was tested, and the “PBM E-score” value was 0.0494. AAGTAGAG was tested, and the “PBM E-score” value was -0.234. For TAAAATGA, the “PBM E-score” value was -0.0221. CCAGTGGC was tested, and the “PBM E-score” value was -0.234. AAGGTCGG was tested, and the “PBM E-score” value was 0.227. For AATAAGTG, the “PBM E-score” value was -0.242. For AGCTTCTA, the “PBM E-score” value was -0.0932. ACACATCT was tested, and the “PBM E-score” value was -0.00913. With CCCACTAA the “PBM E-score” value was -0.0708. In the case of CGTGGCAC, the “PBM E-score” value is reported as -0.108. In the case of CAGAGTCC, the “PBM E-score” value is reported as 0.0837. In the case of CCCAGCTC, the “PBM E-score” value is reported as 0.0332. GAATCCTC was tested, and the “PBM E-score” value was -0.16. With CCCTAGCC the “PBM E-score” value was -0.232. For CTTTAGGC, the “PBM E-score” value was -0.107. For ACGTACAA, the “PBM E-score” value was -0.164. For GCCCGGCA, the “PBM E-score” value was 0.255. For ATGACGCA, the “PBM E-score” value was -0.168. With CTCAACGA the “PBM E-score” value was -0.15. ATGGGAGG was tested, and the “PBM E-score” value was -0.0262. With GCTTTCCC the “PBM E-score” value was 0.124. In the case of CTTGTACC, the “PBM E-score” value is reported as -0.145. For CGGGTGTA, the “PBM E-score” value was 0.182. With TACAGCGA the “PBM E-score” value was -0.268. With AAATGGCT the “PBM E-score” value was -0.137. ATTCAATG was tested, and the “PBM E-score” value was -0.0726. For AAGGTTAC, the “PBM E-score” value was -0.159. In the case of ATCGTCTC, the “PBM E-score” value is reported as 0.117. ACTACTAC was tested, and the “PBM E-score” value was -0.00327. TGCATGCA was tested, and the “PBM E-score” value was -0.206. For AGCTCGTA, the “PBM E-score” value was -0.257. CCTTATTA was tested, and the “PBM E-score” value was -0.0752. For AAGGCATT, the “PBM E-score” value was -0.246. In the case of AAAGGTGT, the “PBM E-score” value is reported as -0.0287. CAGGACTC was tested, and the “PBM E-score” value was -0.151. With CCCCAGAG the “PBM E-score” value was -0.173. In the case of ACCCACTC, the “PBM E-score” value is reported as -0.0396. AATTGACT was tested, and the “PBM E-score” value was -0.0516. In the case of ATCGGCCA, the “PBM E-score” value is reported as 0.187. ACCAGCCA was tested, and the “PBM E-score” value was -0.207. CACGTACC was tested, and the “PBM E-score” value was -0.152. In the case of GACGACGC, the “PBM E-score” value is reported as -0.211. For CGTGTCAC, the “PBM E-score” value was 0.0133. With ATACGTCA the “PBM E-score” value was -0.0294. AGCGGTCG was tested, and the “PBM E-score” value was -0.0665. With AAACTTGC the “PBM E-score” value was -0.0141. For ATGTTCTA, the “PBM E-score” value was 0.0446. ACCTCCCA was tested, and the “PBM E-score” value was -0.337. GACTGACC was tested, and the “PBM E-score” value was -0.273. With ACCCACAA the “PBM E-score” value was 0.00936. In the case of AGAGCAGC, the “PBM E-score” value is reported as -0.24. With TCCATTCA the “PBM E-score” value was -0.0823. In the case of CAACTCGG, the “PBM E-score” value is reported as 0.139. With GACCAATA the “PBM E-score” value was -0.149. For AGTGCCAT, the “PBM E-score” value was -0.211. In the case of GCACTAGC, the “PBM E-score” value is reported as -0.0613. CCGCCCTC was tested, and the “PBM E-score” value was 0.295. With GGCTGCTA the “PBM E-score” value was -0.0639. CCGTCGGA was tested, and the “PBM E-score” value was 0.415. In the case of CAAGTTTC, the “PBM E-score” value is reported as -0.0901. In the case of ACCATGCT, the “PBM E-score” value is reported as -0.0722. In the case of CTAGCTGC, the “PBM E-score” value is reported as -0.243. In the case of AGGAGTAC, the “PBM E-score” value is reported as -0.136. In the case of AATTTTAT, the “PBM E-score” value is reported as 0.217. For CACCATTC, the “PBM E-score” value was -0.163. With ACCAATGA the “PBM E-score” value was -0.18. With AGTCCGAA the “PBM E-score” value was 0.425. In the case of ATAGTTGG, the “PBM E-score” value is reported as -0.122. CCCAAGGG was tested, and the “PBM E-score” value was -0.238. In the case of ACCGGGAC, the “PBM E-score” value is reported as 0.313. With GTGACGAA the “PBM E-score” value was -0.152. AATAAGAG was tested, and the “PBM E-score” value was 0.137. With TGCGTAAA the “PBM E-score” value was -0.0211. In the case of TATGCTCA, the “PBM E-score” value is reported as -0.0938. ATGTCCAA was tested, and the “PBM E-score” value was 0.0298. CCTTGCAA was tested, and the “PBM E-score” value was -0.357. In the case of GCTGTGAA, the “PBM E-score” value is reported as -0.274. ATTCAAAC was tested, and the “PBM E-score” value was -0.0321. For ACGGGAGA, the “PBM E-score” value was 0.00568. In the case of ACAGGTTA, the “PBM E-score” value is reported as -0.251. For CCCAACCA, the “PBM E-score” value was 0.0249. In the case of AGTAGTCG, the “PBM E-score” value is reported as -0.0443. GTTCACCA was tested, and the “PBM E-score” value was -0.0632. In the case of AATTCATC, the “PBM E-score” value is reported as -0.0488. With AGCCCCAG the “PBM E-score” value was 0.00427. AATGAGCA was tested, and the “PBM E-score” value was -0.124. In the case of GCGAAGAC, the “PBM E-score” value is reported as 0.18. In the case of CGTTCTTC, the “PBM E-score” value is reported as -0.0105. In the case of GAAAACCC, the “PBM E-score” value is reported as 0.246. In the case of CGGGCATC, the “PBM E-score” value is reported as 0.133. For GATAATAA, the “PBM E-score” value was 0.0865. With CGGAAGTA the “PBM E-score” value was 0.342. With CCCCACCG the “PBM E-score” value was 0.262. For GATATTGC, the “PBM E-score” value was 0.0334. With GCCGAAGC the “PBM E-score” value was 0.272. With AGGTGCCG the “PBM E-score” value was 0.269. With CCGTAGAG the “PBM E-score” value was 0.0318. With CGCTAAAC the “PBM E-score” value was 0.0639. In the case of CAGTAAGC, the “PBM E-score” value is reported as -0.123. With ATGCCCAG the “PBM E-score” value was -0.0681. In the case of GGGAGATA, the “PBM E-score” value is reported as -0.0385. CCGATCGC was tested, and the “PBM E-score” value was 0.228. In the case of AGAGAATC, the “PBM E-score” value is reported as -0.0802. For CGAACACA, the “PBM E-score” value was -0.0492. With TCATCGAA the “PBM E-score” value was -0.174. For AGTATGAT, the “PBM E-score” value was -0.0096. CGCGGTTA was tested, and the “PBM E-score” value was 0.133. In the case of ACGTTTTG, the “PBM E-score” value is reported as -0.234. For GGCGAGCA, the “PBM E-score” value was 0.0201. GTCTAAAA was tested, and the “PBM E-score” value was -0.133. In the case of CCGGTGAG, the “PBM E-score” value is reported as 0.217. In the case of GGATTGCA, the “PBM E-score” value is reported as 0.0845. In the case of AAAGGTGA, the “PBM E-score” value is reported as -0.179. AGAAAAGG was tested, and the “PBM E-score” value was -0.151. For TACATACA, the “PBM E-score” value was -0.112. With GATGATAC the “PBM E-score” value was 0.0473. In the case of ATAAACGG, the “PBM E-score” value is reported as 0.216. With GCTAATAA the “PBM E-score” value was -0.0659. GCCCGCGC was tested, and the “PBM E-score” value was 0.262. With AATCGTCA the “PBM E-score” value was -0.173. CAGGCAGG was tested, and the “PBM E-score” value was -0.198. With CACCCCTG the “PBM E-score” value was -0.149. For ACCGTAGG, the “PBM E-score” value was -0.158. With AATCGTGA the “PBM E-score” value was -0.0534. For CGCGTTAA, the “PBM E-score” value was 0.0131. For CGGCGACG, the “PBM E-score” value was 0.311. CCTATCCG was tested, and the “PBM E-score” value was 0.114. In the case of CCTGTACG, the “PBM E-score” value is reported as -0.132. AGTGTCGG was tested, and the “PBM E-score” value was 0.373. In the case of CACGTCGG, the “PBM E-score” value is reported as 0.306. For CAATCGGA, the “PBM E-score” value was 0.425. With ACGTCAGT the “PBM E-score” value was -0.144. For GACGTATA, the “PBM E-score” value was -0.0885. With CACGCCAA the “PBM E-score” value was -0.192. ATAAAAGC was tested, and the “PBM E-score” value was -0.00834. For AGTGGTTC, the “PBM E-score” value was -0.122. For TTACCAAA, the “PBM E-score” value was -0.0662. GATGAGGC was tested, and the “PBM E-score” value was -0.156. In the case of GAAGCGCA, the “PBM E-score” value is reported as 0.246. In the case of GCCTCTAC, the “PBM E-score” value is reported as -0.279. With CCAGCAGC the “PBM E-score” value was -0.108. AGGGTCAA was tested, and the “PBM E-score” value was -0.00892. For GGTAATAC, the “PBM E-score” value was 0.175. In the case of ATAAGTTA, the “PBM E-score” value is reported as -0.103. In the case of AGCCCTTA, the “PBM E-score” value is reported as -0.232. In the case of GTCGTAAC, the “PBM E-score” value is reported as -0.159. In the case of ACCGATAA, the “PBM E-score” value is reported as 0.269. For ACTAGCAG, the “PBM E-score” value was -0.293. For CTGTAGTC, the “PBM E-score” value was -0.0825. AGCTCTAC was tested, and the “PBM E-score” value was -0.2. In the case of ATACTAAG, the “PBM E-score” value is reported as -0.0703. CCTTGCCA was tested, and the “PBM E-score” value was -0.16. For GAATTCCC, the “PBM E-score” value was 0.155. With CCGAGAAA the “PBM E-score” value was 0.37. For ATGCTGCC, the “PBM E-score” value was -0.0605. CTCAGTCC was tested, and the “PBM E-score” value was -0.0718.
